# Measurements from paper PMC4336329 (PLoS ONE, 2015).
# The campaign covered roughly 310,000 compounds. About 2,200 (0.71%) showed an effect of 50% or more. Effects have a minus sign here. Some of the results follow.
# Biological target: human ether-à-go-go-related gene (hERG) potassium channel (human, UniProt Q12809)
# Experiment: primary screen, population patch clamp on CHO cells stably expressing hERG
# Sequence of human ether-à-go-go-related gene (hERG) potassium channel (Q12809 whole entry, looked up): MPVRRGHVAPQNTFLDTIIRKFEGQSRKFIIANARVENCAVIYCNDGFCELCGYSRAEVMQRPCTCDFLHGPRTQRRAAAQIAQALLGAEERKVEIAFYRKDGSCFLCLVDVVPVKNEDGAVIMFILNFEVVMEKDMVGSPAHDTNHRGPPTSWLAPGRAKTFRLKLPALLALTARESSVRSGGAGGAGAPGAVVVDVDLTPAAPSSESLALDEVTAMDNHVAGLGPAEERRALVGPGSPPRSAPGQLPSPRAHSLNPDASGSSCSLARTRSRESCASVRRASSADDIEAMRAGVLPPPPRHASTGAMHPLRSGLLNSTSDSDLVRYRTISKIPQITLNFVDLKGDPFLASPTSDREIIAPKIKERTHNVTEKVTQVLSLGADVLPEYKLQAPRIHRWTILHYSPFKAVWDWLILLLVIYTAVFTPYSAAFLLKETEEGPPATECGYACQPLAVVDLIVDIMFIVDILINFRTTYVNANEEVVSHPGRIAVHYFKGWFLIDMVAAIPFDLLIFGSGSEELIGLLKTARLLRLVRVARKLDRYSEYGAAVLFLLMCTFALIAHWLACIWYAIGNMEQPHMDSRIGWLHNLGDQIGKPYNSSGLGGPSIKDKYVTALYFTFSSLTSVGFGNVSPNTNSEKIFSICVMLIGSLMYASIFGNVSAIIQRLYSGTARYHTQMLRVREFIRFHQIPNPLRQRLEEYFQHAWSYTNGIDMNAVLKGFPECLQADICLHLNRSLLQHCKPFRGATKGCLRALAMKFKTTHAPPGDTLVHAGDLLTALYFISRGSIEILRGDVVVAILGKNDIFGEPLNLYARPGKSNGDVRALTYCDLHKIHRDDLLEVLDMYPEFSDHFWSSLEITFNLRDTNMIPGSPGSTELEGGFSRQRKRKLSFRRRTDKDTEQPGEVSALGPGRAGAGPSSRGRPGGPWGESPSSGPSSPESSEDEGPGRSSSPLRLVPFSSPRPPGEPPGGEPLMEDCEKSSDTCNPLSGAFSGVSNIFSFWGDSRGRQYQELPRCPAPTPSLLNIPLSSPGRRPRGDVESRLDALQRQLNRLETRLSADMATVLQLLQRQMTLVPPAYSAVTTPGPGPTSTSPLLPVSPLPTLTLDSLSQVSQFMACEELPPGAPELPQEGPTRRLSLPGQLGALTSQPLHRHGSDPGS
row,SMILES,"hERG current change (%, negative = inhibition) at 1uM [%]"
1,COc1ccc(S(=O)(=O)n2nc(OC(=O)c3c(-c4ccccc4Cl)noc3C)cc2N)cc1,12.7
2,Nc1[nH]nc2nc(-c3ccccc3)[nH]c(=O)c12,16.7
3,CCc1ccc(NC(=O)CSc2nnc(-c3cnccn3)n2Cc2ccco2)cc1,-1.43
4,COc1cccc(NC(=O)CN(C)CC(=O)c2c(C)[nH]c3ccccc23)c1,3.24
5,CC1CCCCN1C(=O)C1COc2ccccc2O1 (centres unmarked),13.4
6,O=C(COC(=O)c1c[nH]c(=O)[nH]c1=O)Nc1cccc([N+](=O)[O-])c1,10.3
7,O/N=C1\CC2(Cc3nonc31)OCCO2,12.7
8,O=C1CN(C(=O)c2ccc(Cl)nc2)c2ccccc2N1,6.36
9,Cc1onc(-c2ccccc2)c1C(=O)N/N=C/c1ccc(Br)cc1,7.22
10,O=C(Nc1ccc2c(c1)OCO2)C1CCCN(S(=O)(=O)c2cccs2)C1 (centres unmarked),10.5
11,O=Cc1c(N2CCN(c3cccc(Cl)c3)CC2)nc2ccccn2c1=O,-4.85
12,CCOc1cc(Cl)c(NC(=O)c2ccco2)cc1OCC,5.8
13,CCc1ccc(CCC(=O)Nc2sc3c(c2C#N)CCCC3)o1,9.56
14,COc1cc2nc(SCc3c(C)noc3C)n(CCC3=CCCCC3)c(=O)c2cc1OC,19.1
15,Cc1cc(N2CCN(c3ccccc3)CC2)nc(-c2ccccc2O)n1,1.33
16,NS(=O)(=O)c1ccc(NC(=O)CSc2nnc(C3CC3)n2C2CC2)cc1,13
17,CN1C(c2ccccc2)=NO[C@]1(C)c1ccccc1,6.69
18,CC(C)CC(=O)Nc1ccc(C(=O)Cn2nc(C(=O)O)c3ccccc3c2=O)cc1,-0.503
19,CN(C)c1ccc(CN(C(=O)COc2ccccc2)C2CCS(=O)(=O)C2)cc1 (centres unmarked),5.76
20,c1ccc(Nc2ncnc3sccc23)cc1,7.31
21,CCOc1ccc(N2C(=O)c3ccccc3C2=O)cc1,11.1
22,N/C(=N\OC(=O)c1ccc(F)cc1)c1ccc(Br)cc1,12.6
23,CCOC(=O)C1CCN(C(=O)CC(NS(=O)(=O)c2ccc(OC)cc2)C(C)C)CC1 (centres unmarked),5.27

row,SMILES,"hERG current change (%, negative = inhibition) at 1uM [%]"
1,Cc1ccc(S(=O)(=O)N2CCCC(C(=O)NCCC3=CCCCC3)C2)cc1 (centres unmarked),0.432
2,O=C(Nc1cccc2ncccc12)c1ccco1,20.1
3,COc1cc(NC(=O)C2CCN(S(=O)(=O)c3cccc4nonc34)CC2)cc(OC)c1,11.8
4,CS(=O)(=O)N1N=C(c2ccco2)CC1c1ccco1 (centres unmarked),9.6
5,COc1c(N2CCN(C(=S)Nc3ccccc3F)C(C)C2)c(F)cc2c(=O)c(C(=O)O)cn(C3CC3)c12 (centres unmarked),12.7
6,Nc1nnc(Cc2cccc(Br)c2)s1,12
7,O=C(Cn1nc(-c2ccccc2)c2ccccc2c1=O)NCCO,10.2
8,CCC(CO)N=CC1=C(O)C(C(=O)c2ccccc2)CCC1=O (centres unmarked),7.56
9,CCOC(=O)c1cc([N+](=O)[O-])sc1NC(=O)c1ccc(S(=O)(=O)N2CC3(C)CC2CC(C)(C)C3)cc1 (centres unmarked),3.1
10,Cc1cccc(OCC(O)Cn2c(=N)n(Cc3ccccc3)c3ccccc32)c1.Cl (centres unmarked),-16.4
11,Cc1ccc[n+](CC(=O)c2ccc(Br)cc2)c1.[Br-],10.3
12,CCCCc1nc2cc(C(=O)NCCc3cnn(C)c3)ccc2o1,15.7
13,O=C(/C=C/c1ccc(Cl)cc1Cl)c1nc2ccccc2[nH]1,14.4
14,O=C(CCCOc1ccccc1)N1CCN(c2ccccn2)CC1,4.13
15,CCOc1ccc(CCNC(=O)CN2C(=O)c3cccnc3Oc3ccc(Cl)cc32)cc1,7.57
16,Cc1cccc(-c2nc(CS(=O)CC(=O)NC3CCCCC3)c(C)o2)c1 (centres unmarked),10.5
17,CCN(CC(=O)NC(C)(C)C)C(=O)c1ccc2c(c1)S(=O)(=O)c1ccccc1C2=O,15.1
18,CCCN=C1N/C(=C\c2ccco2)C(=O)N1c1ccccc1,17.3
19,C/C(=N\NC(=O)c1ccccc1)C1C2C=CC(C2)C1(C)C (centres unmarked),13.7
20,O=C(NCC1CCCO1)C1CCN(C2CCN(Cc3cccs3)CC2)CC1 (centres unmarked),-41.4
21,c1ccc(N2CCN(Cc3ccnc4ccccc34)CC2)cc1,5.27
22,Cl.O=C1CN=C(Nc2cccc(C(F)(F)F)c2)N1C1CCCC1,8.43
23,O=C(O)c1ccc(S(=O)(=O)c2ccccc2C(=O)O)c([N+](=O)[O-])c1,21.7

row,SMILES,"hERG current change (%, negative = inhibition) at 1uM [%]"
1,O=C(CSc1n[nH]c(=O)[nH]c1=O)c1ccc(Cl)cc1Cl,4.94
2,O=C(NNC(=O)c1cc(-c2ccccc2)n(-c2ccccc2)n1)c1cccc([N+](=O)[O-])c1,5.31
3,CCO.CCSc1nc2ccccc2c(=O)n1-c1c(C)n(C)n(-c2ccccc2)c1=O,8.37
4,CCCCCNc1nc(-c2ccccc2)cs1,16.5
5,CCc1ccc(S(=O)(=O)Nc2ccc(-c3nc4cccnc4s3)cc2)s1,9.6
6,COc1ccc(C(=O)CSc2nnc(Cc3ccccc3)o2)cc1,13.3
7,C=CCNC(=O)c1ccccc1NS(=O)(=O)c1ccccc1,0.158
8,CC(C)C(O)(C#CCN1CCCCCC1)c1ccccc1.Cl (centres unmarked),6.24
9,Cc1ccc(-n2nc3c(c2NC(=O)c2ccco2)CS(=O)(=O)C3)c(C)c1,12.2
10,CC(C)(C)NC(=O)[C@@H]1C[C@@H]2CCCC[C@@H]2CN1C[C@@H](O)[C@H](Cc1ccccc1)NC(=O)[C@H](CC(N)=O)NC(=O)c1ccc2ccccc2n1,12.2
11,CCc1nc(SCC(=O)Nc2nnc(CC)s2)c2c(C)c(C)sc2n1,8.46
12,CCC(C(=O)O)n1nnc(-c2ccc(OCc3ccccc3)c(OC)c2)n1 (centres unmarked),11.3
13,CC(C(=O)Nc1ccc(Cl)cc1)N(C)Cc1cccs1 (centres unmarked),17.4
14,Cc1nn(-c2ccccc2)c(C)c1/C=C1\C(=O)N(C)C(=S)N1C,2.94
15,O=C(N/N=C/c1ccco1)c1cc([N+](=O)[O-])cc([N+](=O)[O-])c1,4.49
16,O=Cc1ccc(C(=O)OCC(=O)Nc2ccc(F)cc2F)cc1,15
17,Cc1ccc(CN2[C@@H]3c4ccccc4C[C@@H]3OCCS2(=O)=O)cc1,14.3
18,CCOC(=O)c1c(S(=O)(=O)NCC(=O)N2CCN(c3ccccc3OC)CC2)c(C)n(C)c1C,13.3
19,CC(=O)NC(Cc1ccc(N(CCCl)CCCl)cc1)C(=O)NCC(=O)NCC(=O)O (centres unmarked),9.88
20,Nc1ccc2nc(SCc3ccc([N+](=O)[O-])cc3)sc2c1,-5.18
21,O=C(COC(=O)/C=C/c1ccc(C(F)(F)F)cc1)NC1CC1,4.17
22,CCCCNC(=S)N/N=C1\CCCCc2ccccc21,-8.7
23,CCn1c(SCC(=O)Nc2nc(C)c(C)s2)nnc1-c1cccs1,-62.5

row,SMILES,"hERG current change (%, negative = inhibition) at 1uM [%]"
1,CC(C)C(=O)Nc1ccc(C(=O)NNC(=O)c2cccs2)cc1,7.81
2,O=C(Cc1coc2ccc3ccccc3c12)NCc1cccs1,12.2
3,CC(C)(C)C1CCC(OCC(O)CN2CCN(c3ccccn3)CC2)CC1.Cl (centres unmarked),9.29
4,COc1ccc(OC)c(S(=O)(=O)Nc2c(C)n(C)n(-c3ccccc3)c2=O)c1,3.33
5,CS(=O)(=O)Nc1ccc2c(c1)C(=O)OC2,18
6,O=C(c1ccccc1)N(Cc1ccc(F)cc1)C1CCS(=O)(=O)C1 (centres unmarked),7.52
7,COc1ccc(CCN(C)C(=O)c2ccc(S(=O)(=O)Nc3ccccc3F)cc2)cc1OC,10.7
8,CCc1noc(C)c1C(=O)N(CC)CC(=O)NCc1ccc(Cl)cc1,8.68
9,Cc1ccc(C)c(NC(=O)CSc2sc3c(O)cc(=O)[nH]c3c2C#N)c1,13.9
10,O=C(COC(=O)CNC(=O)c1ccccc1)Nc1cccc(Br)c1,11.6
11,COCCNc1ccc([N+](=O)[O-])cc1C(=O)Nc1cccc(C)n1,-32.5
12,O=C1Nc2ccccc2N=C(c2ccccc2)c2ccccc21,11.1
13,COc1ccc(N=Cc2cc(Cl)ccc2O)cc1Cl,7.38
14,Cc1c(CCCC(=O)O)sc(N)c1C(=O)c1cccc(C(F)(F)F)c1,16.4
15,CC(=O)Nc1nc(SCCCc2ccccc2)n[nH]1,-17.7
16,O=C(Nc1cccnc1)C1(c2ccccc2)CCCC1,7.53
17,CSc1sccc1/C=N/O,16.1
18,CC(C)Oc1ccccc1OCCN(C)C.O=C(O)C(=O)O,4.04
19,CCC(=O)Nc1cccc(NC(=O)c2cccc([N+](=O)[O-])c2C)c1,4.66
20,COc1ccnc2c1c(=O)n(Cc1cccc(Cl)c1)c(=O)n2C,9.1
